According to a collection of fitness landscapes (doi:10.1016/j.celrep.2020.107928):
Over roughly 81,000 sequences, “one-hybrid fitness for binding NBS DNA” has its median near -0.1; the highest 2% begin near 0.36. This is one part of the list.

B1: Caulobacter ParB omega fusion; a variant is named by its letters at X, in order, B8GW30 (parent)
chain: MESVVVGEPGMSEGRRGLGRGLSALLGEVDAAPAQAPGEQLGGSREAPIEILQRNPDQPRRTFREEDLEDLSNSIREKGVLQPILVRPSPDTAGEYQIVAGERAWRAAQRAGLKTVPIMVRELDDLAVLEIGIIENVQRADLNVLEEALSYKVLMEKFERTQENIAQTIGKSXSHVANXMRLLXLPDEVQSYLVSGELTAXHARAIAAAADPVALAKQIIEGGLSVRETEALARKAPNLSAGKSKGGRPPRVKDTDTQALESDLSSVLGLDVSIDHRGSTGTLTITYATLEQLDDLCNRLTRGI

Variants of: B1
Test: one-hybrid fitness for binding NBS DNA (the Noc-binding site; scaled: cognate 1, non-cognate 0); higher = stronger binding
Conditions: with NBS DNA site
How it was run: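 Fitness is the rescaled log change in variant-to-wild-type read ratio, measured by Illumina sequencing of plasmids before and after bacterial one-hybrid selection. The scale puts cognate at 1 and non-cognate at 0. Selection of Caulobacter ParB libraries, four specificity codons randomised, took place in E. coli USO with a HIS3 reporter, site 19 bp from the promoter, over 48 hours at 37°C on M9-minus-histidine with 0.1 mM IPTG and 5 mM 3-AT.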

| Variant | one-hybrid fitness for binding NBS DNA |
| --- | --- |
| WTTC | ≤ 0.2 |
| RGRA | ≤ 0.2 |
| QWSS | ≤ 0.2 |
| QSCA | ≤ 0.2 |
| YVVR | ≤ 0.2 |
| ETNM | ≤ 0.2 |
| TWNF | ≤ 0.2 |
| AMTP | ≤ 0.2 |
| MSCC | ≤ 0.2 |
| SQQL | ≤ 0.2 |
| QINS | 0.329 |
| HDPV | ≤ 0.2 |
| ENTT | ≤ 0.2 |
| VHWS | ≤ 0.2 |
| ALKK | ≤ 0.2 |
| VYGR | ≤ 0.2 |
| KART | 0.209 |
| RANQ | ≤ 0.2 |
| QMRT | 0.79 |
| AVAI | ≤ 0.2 |
| SHPL | ≤ 0.2 |
| QKHL | ≤ 0.2 |
| PTAL | ≤ 0.2 |
| CNMC | ≤ 0.2 |

| Variant | one-hybrid fitness for binding NBS DNA |
| --- | --- |
| RNAK | ≤ 0.2 |
| MSSD | ≤ 0.2 |
| AGLC | ≤ 0.2 |
| CFTT | ≤ 0.2 |
| VSWG | ≤ 0.2 |
| RKWA | 0.249 |
| GTVG | ≤ 0.2 |
| QADY | ≤ 0.2 |
| VKAQ | ≤ 0.2 |
| QSMK | ≤ 0.2 |
| KTRS | 0.262 |
| TTRI | ≤ 0.2 |
| RDDD | ≤ 0.2 |
| TSPK | ≤ 0.2 |
| CTMS | ≤ 0.2 |
| QTWW | ≤ 0.2 |
| LASA | ≤ 0.2 |
| TCVC | ≤ 0.2 |
| QMTF | ≤ 0.2 |
| ASLI | ≤ 0.2 |
| FKPG | ≤ 0.2 |
| LSMA | ≤ 0.2 |
| QQIY | ≤ 0.2 |
| SDFR | ≤ 0.2 |

| Variant | one-hybrid fitness for binding NBS DNA |
| --- | --- |
| RTEG | ≤ 0.2 |
| RDDL | ≤ 0.2 |
| VSKN | ≤ 0.2 |
| SPKR | ≤ 0.2 |
| NTHT | ≤ 0.2 |
| KKMT | ≤ 0.2 |
| TNTI | ≤ 0.2 |
| PKIT | ≤ 0.2 |
| PPCR | ≤ 0.2 |
| PRCI | ≤ 0.2 |
| QCGW | ≤ 0.2 |
| RGYA | ≤ 0.2 |
| NAVR | ≤ 0.2 |
| RIAS | 0.345 |
| QYGT | 0.421 |
| IPTW | ≤ 0.2 |
| NIER | ≤ 0.2 |
| DPEK | ≤ 0.2 |
| CLER | ≤ 0.2 |
| TADT | ≤ 0.2 |
| FRSL | ≤ 0.2 |
| TARH | ≤ 0.2 |
| QTFM | ≤ 0.2 |
| SADT | ≤ 0.2 |

| Variant | one-hybrid fitness for binding NBS DNA |
| --- | --- |
| RVSH | ≤ 0.2 |
| GVDR | ≤ 0.2 |
| ACEH | ≤ 0.2 |
| AFQR | ≤ 0.2 |
| ATKC | ≤ 0.2 |
| LRWV | ≤ 0.2 |
| SDTI | ≤ 0.2 |
| NYGR | ≤ 0.2 |
| SRSF | ≤ 0.2 |
| IWSG | ≤ 0.2 |
| RPTI | ≤ 0.2 |
| SYVR | ≤ 0.2 |
| CLRM | ≤ 0.2 |
| RMEA | ≤ 0.2 |
| HGLP | ≤ 0.2 |
| MHNR | ≤ 0.2 |
| DVNN | ≤ 0.2 |
| CGCG | ≤ 0.2 |
| EGWC | ≤ 0.2 |
| FRMW | ≤ 0.2 |
| AQVE | ≤ 0.2 |
| NTQY | ≤ 0.2 |
| KPIK | ≤ 0.2 |
| QQRC | 0.455 |

| Variant | one-hybrid fitness for binding NBS DNA |
| --- | --- |
| QPQE | ≤ 0.2 |
| ARHG | ≤ 0.2 |
| YGEP | ≤ 0.2 |
| LGRT | ≤ 0.2 |
| YSIW | ≤ 0.2 |
| YIGV | ≤ 0.2 |
| NGSC | ≤ 0.2 |
| MPGA | ≤ 0.2 |
| PACE | ≤ 0.2 |
| NEIL | ≤ 0.2 |
| CTWT | ≤ 0.2 |
| LFGT | ≤ 0.2 |
| KHSL | ≤ 0.2 |
| TVEW | ≤ 0.2 |
| QGPV | ≤ 0.2 |
| QHPE | ≤ 0.2 |
| LEEV | ≤ 0.2 |
| VGCG | ≤ 0.2 |
| RYMH | ≤ 0.2 |
| TKSV | ≤ 0.2 |
| IMCS | ≤ 0.2 |
| PPLQ | ≤ 0.2 |
| ATRT | ≤ 0.2 |
| KQLL | ≤ 0.2 |

| Variant | one-hybrid fitness for binding NBS DNA |
| --- | --- |
| DFGS | ≤ 0.2 |
| SSVH | ≤ 0.2 |
| QVSF | ≤ 0.2 |
| QLNG | ≤ 0.2 |
| KRRP | ≤ 0.2 |
| YKKC | ≤ 0.2 |
| ASMV | ≤ 0.2 |
| HSDI | ≤ 0.2 |
| GNTW | ≤ 0.2 |
| AINK | ≤ 0.2 |
| RNIP | ≤ 0.2 |
| SCWR | ≤ 0.2 |
| RSCG | ≤ 0.2 |
| QTHE | ≤ 0.2 |
| HGLL | ≤ 0.2 |
| LRRK | ≤ 0.2 |
| YDSW | ≤ 0.2 |
| AQKK | ≤ 0.2 |
| RHQH | ≤ 0.2 |
| APTH | ≤ 0.2 |
| RTMV | ≤ 0.2 |
| WHVC | ≤ 0.2 |
| TAAL | ≤ 0.2 |
| GCFS | ≤ 0.2 |

| Variant | one-hybrid fitness for binding NBS DNA |
| --- | --- |
| TTKN | ≤ 0.2 |
| ILAP | ≤ 0.2 |
| KGRT | ≤ 0.2 |
| PGIN | ≤ 0.2 |
| NVWT | ≤ 0.2 |
| LTKQ | ≤ 0.2 |
| KTTK | ≤ 0.2 |
| NFDE | ≤ 0.2 |
| ILLD | ≤ 0.2 |
| CIGV | ≤ 0.2 |
| FGAC | ≤ 0.2 |
| AAAS | ≤ 0.2 |
| LVMC | ≤ 0.2 |
| RYMF | ≤ 0.2 |
| AKNS | ≤ 0.2 |
| HNSA | ≤ 0.2 |
| CYPM | ≤ 0.2 |
| TPCT | ≤ 0.2 |
| GKTM | ≤ 0.2 |
| RGNS | ≤ 0.2 |
| ESPA | ≤ 0.2 |
| FLRD | ≤ 0.2 |
| HICR | ≤ 0.2 |
| PHKT | ≤ 0.2 |

| Variant | one-hybrid fitness for binding NBS DNA |
| --- | --- |
| QHKE | 0.246 |
| KFGS | ≤ 0.2 |
| PDLR | ≤ 0.2 |
| GWNN | ≤ 0.2 |
| KIPV | ≤ 0.2 |
| PVDM | ≤ 0.2 |
| NPYT | ≤ 0.2 |
| DNKS | ≤ 0.2 |
| GMVF | ≤ 0.2 |
| TMPT | ≤ 0.2 |
| EQYW | ≤ 0.2 |
| TVRS | ≤ 0.2 |
| YSGT | ≤ 0.2 |
| HTPT | ≤ 0.2 |
| EHEC | ≤ 0.2 |
| SSAL | ≤ 0.2 |
| GCSG | ≤ 0.2 |
| ILNK | ≤ 0.2 |
| PIYP | ≤ 0.2 |
| HHPY | ≤ 0.2 |
| ICYR | ≤ 0.2 |
| TDSF | ≤ 0.2 |
| THAN | ≤ 0.2 |
| RHKI | ≤ 0.2 |

| Variant | one-hybrid fitness for binding NBS DNA |
| --- | --- |
| TNFE | ≤ 0.2 |
| VDWL | ≤ 0.2 |
| LWYC | ≤ 0.2 |
| ATVN | ≤ 0.2 |
| IRTC | ≤ 0.2 |
| DMYC | ≤ 0.2 |
| FVRR | ≤ 0.2 |
| AYNV | ≤ 0.2 |
| EVKM | ≤ 0.2 |
| YWVS | ≤ 0.2 |
| MQYL | ≤ 0.2 |
| TIGA | ≤ 0.2 |
| RSLY | ≤ 0.2 |
| MSAV | ≤ 0.2 |
| EITA | ≤ 0.2 |
| HNKG | ≤ 0.2 |
| HPKT | ≤ 0.2 |
| YISC | ≤ 0.2 |
| HYVF | ≤ 0.2 |
| SKTT | ≤ 0.2 |
| QIPT | ≤ 0.2 |
| SVAS | ≤ 0.2 |
| TNLF | ≤ 0.2 |
| EMKL | ≤ 0.2 |

| Variant | one-hybrid fitness for binding NBS DNA |
| --- | --- |
| YATF | ≤ 0.2 |
| FPYL | ≤ 0.2 |
| YTLV | ≤ 0.2 |
| TVSY | ≤ 0.2 |
| RQVR | 0.258 |
| LVPM | ≤ 0.2 |
| FSRL | ≤ 0.2 |
| SDNA | ≤ 0.2 |
| QNYI | ≤ 0.2 |
| FNGF | ≤ 0.2 |
| PDAQ | ≤ 0.2 |
| CKYR | ≤ 0.2 |
| AQMS | ≤ 0.2 |
| STWN | ≤ 0.2 |
| ALLG | ≤ 0.2 |
| NPEF | ≤ 0.2 |
| IVNT | ≤ 0.2 |
| TTWT | ≤ 0.2 |
| PVQS | ≤ 0.2 |
| VYES | ≤ 0.2 |
| LFYT | ≤ 0.2 |
| PHKG | ≤ 0.2 |
| RQYW | ≤ 0.2 |
| SHES | ≤ 0.2 |

| Variant | one-hybrid fitness for binding NBS DNA |
| --- | --- |
| IYTP | ≤ 0.2 |
| AGMK | ≤ 0.2 |
| RKPN | ≤ 0.2 |
| ATKQ | ≤ 0.2 |
| HQPC | ≤ 0.2 |
| SWVT | ≤ 0.2 |
| DTNA | ≤ 0.2 |
| HFDR | ≤ 0.2 |
| HRSS | ≤ 0.2 |
| MYGY | ≤ 0.2 |
| SCSS | ≤ 0.2 |
| VSIM | ≤ 0.2 |
| MMVS | ≤ 0.2 |
| KAGY | ≤ 0.2 |
| FFAA | ≤ 0.2 |
| RQDF | ≤ 0.2 |
| MRRS | ≤ 0.2 |
| PENC | ≤ 0.2 |
| LLYT | ≤ 0.2 |
| AFGN | ≤ 0.2 |
| QTDW | ≤ 0.2 |
| RRGL | ≤ 0.2 |
| LSLH | ≤ 0.2 |
| RASN | ≤ 0.2 |

| Variant | one-hybrid fitness for binding NBS DNA |
| --- | --- |
| GSDN | ≤ 0.2 |
| EAIG | ≤ 0.2 |
| LWSS | ≤ 0.2 |
| MNPS | ≤ 0.2 |
| TVSE | ≤ 0.2 |
| GWFR | ≤ 0.2 |
| DKCC | ≤ 0.2 |
| KKYT | 0.249 |
| VASR | ≤ 0.2 |
| RKSI | ≤ 0.2 |
| YTDK | ≤ 0.2 |
| KLLC | ≤ 0.2 |
| DKQL | ≤ 0.2 |
| DGKP | ≤ 0.2 |
| SIWV | ≤ 0.2 |
| RRRD | 0.202 |
| VQGT | ≤ 0.2 |
| QHCY | ≤ 0.2 |
| RLVG | ≤ 0.2 |
| SLQE | ≤ 0.2 |
| RWVP | ≤ 0.2 |
| RKAT | 0.643 |
| SLYK | ≤ 0.2 |
| KPIR | ≤ 0.2 |

| Variant | one-hybrid fitness for binding NBS DNA |
| --- | --- |
| QMIR | 0.398 |
| AVRT | ≤ 0.2 |
| QASN | ≤ 0.2 |
| SPPF | ≤ 0.2 |
| GPRF | ≤ 0.2 |
| IWQL | ≤ 0.2 |
| IAKA | ≤ 0.2 |
| FTNS | ≤ 0.2 |
| LGRV | ≤ 0.2 |
| ATTE | ≤ 0.2 |
| VKEC | ≤ 0.2 |
| VWAR | ≤ 0.2 |
| TCRG | ≤ 0.2 |
| PDCF | ≤ 0.2 |
| HSDW | ≤ 0.2 |
| LLVW | ≤ 0.2 |
| PMLW | ≤ 0.2 |
| AWRC | ≤ 0.2 |
